Among all 310,000 compounds or so, about 2,200 (0.71%) showed an effect of 50% or more. The effect is printed as a negative number. The list shows a part of the results.

For the test, the target named is human ether-à-go-go-related gene (hERG) potassium channel (human, UniProt Q12809). Briefly: primary screen, population patch clamp on CHO cells stably expressing hERG.
Chain of human ether-à-go-go-related gene (hERG) potassium channel (Q12809 whole entry, looked up): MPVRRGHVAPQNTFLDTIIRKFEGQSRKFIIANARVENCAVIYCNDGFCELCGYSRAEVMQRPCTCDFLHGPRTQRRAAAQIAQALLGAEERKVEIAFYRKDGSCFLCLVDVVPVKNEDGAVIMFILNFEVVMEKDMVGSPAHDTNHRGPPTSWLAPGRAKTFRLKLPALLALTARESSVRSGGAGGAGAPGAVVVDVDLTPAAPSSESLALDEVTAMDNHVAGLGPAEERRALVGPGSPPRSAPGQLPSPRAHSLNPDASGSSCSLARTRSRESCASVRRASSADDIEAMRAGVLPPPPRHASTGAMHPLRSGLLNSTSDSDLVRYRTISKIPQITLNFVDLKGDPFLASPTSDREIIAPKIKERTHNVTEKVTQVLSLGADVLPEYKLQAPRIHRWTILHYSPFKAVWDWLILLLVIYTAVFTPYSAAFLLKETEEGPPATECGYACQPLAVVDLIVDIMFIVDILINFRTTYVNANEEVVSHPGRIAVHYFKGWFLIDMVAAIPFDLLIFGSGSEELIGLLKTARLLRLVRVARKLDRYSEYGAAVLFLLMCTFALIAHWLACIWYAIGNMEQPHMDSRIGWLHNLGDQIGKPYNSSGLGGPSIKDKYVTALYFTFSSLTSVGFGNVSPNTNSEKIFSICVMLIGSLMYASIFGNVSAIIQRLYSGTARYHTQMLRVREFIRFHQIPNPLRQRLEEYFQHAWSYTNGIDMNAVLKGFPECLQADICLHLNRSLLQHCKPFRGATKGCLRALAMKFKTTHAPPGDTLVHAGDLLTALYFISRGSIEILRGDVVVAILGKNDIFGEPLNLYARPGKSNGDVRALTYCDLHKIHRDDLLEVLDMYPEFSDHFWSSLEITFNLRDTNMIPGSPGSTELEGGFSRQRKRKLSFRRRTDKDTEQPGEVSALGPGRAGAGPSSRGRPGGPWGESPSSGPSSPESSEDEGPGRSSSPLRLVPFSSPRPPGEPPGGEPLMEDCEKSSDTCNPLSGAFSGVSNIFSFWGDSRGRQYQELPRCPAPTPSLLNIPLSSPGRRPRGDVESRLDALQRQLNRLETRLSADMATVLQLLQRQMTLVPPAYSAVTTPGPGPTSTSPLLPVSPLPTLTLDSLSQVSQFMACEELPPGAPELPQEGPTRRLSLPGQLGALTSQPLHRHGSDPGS
For `CC(=O)c1c(C)nc(C)nc1NC(=O)Cc1ccccc1`, the “hERG current change (%, negative = inhibition) at 1uM” value amounted to 16%. In the case of `COc1ccc(-c2cn3cc([N+](=O)[O-])ccc3n2)cc1OC` it was 7.6%; in that of `O=C(NCCS(=O)(=O)NCc1cccnc1)c1ccccc1`, 5.54%. With `CN(C)c1cc[n+](CCC(=O)Nc2cccc([N+](=O)[O-])c2N)cc1.[Cl-]` the figure was 14.7%; with `O=C(Cn1nc(-c2ccccc2)ccc1=O)N1CCCCC1`, -4.15%; with `COc1ccc(NC(=O)C2CCCN(C(=O)NC3CCCCC3)C2)cc1OC` (centres unmarked), 3.01%.

For the molecule `CC(CC(=O)NC1CCSC1=O)c1ccccc1` (centres unmarked), the “hERG current change (%, negative = inhibition) at 1uM” value was 9.65%.

For the molecule `CCOC(=O)C(Oc1ccc(=O)n(-c2ccccc2)n1)C(C)=O` (centres unmarked), the “hERG current change (%, negative = inhibition) at 1uM” value is recorded as 4.54%. As to `Cc1cc(C)c(S(=O)(=O)ON2C(=O)c3ccccc3C2=O)cc1C`, the “hERG current change (%, negative = inhibition) at 1uM” value was -1.76%. As for `O=C(c1ccccc1)N1CCN(C2CC(=O)N(CCc3ccccc3)C2=O)CC1` (centres unmarked), the “hERG current change (%, negative = inhibition) at 1uM” value was 2.33%. In the case of `c1ccc2c(c1)CC1(CCCC1)N=C2N1CCOCC1` it was 23.2%; in that of `NC(=O)C1(N2CCCCC2)CCN(Cc2ccccc2Cl)CC1`, 12.1%; in that of `O=C(c1ccc(Br)o1)N(Cc1ccccc1)Cc1ccccc1`, 4.84%. With `O=C(c1cc2cc(Cl)ccc2o1)N1CCCC1` the figure was 15.7%; with `COc1cc2c(cc1OC)CN(c1nc(CN3CCOCC3)nc3sc4c(c13)CCCC4)CC2`, -54%; with `CC(=O)c1ccc(OC(=O)COc2ccccc2)cc1`, 15.8%.

Take `O=C(O)C1C2C=CC3(O2)C1C(=O)N1c2ccccc2C2OCCC2C13` (centres unmarked): the “hERG current change (%, negative = inhibition) at 1uM” value worked out at 7.38%. In the case of `C1CCC(C(CC2CCCCN2)C2CCCCC2)CC1.O=C(O)/C=C\C(=O)O` (centres unmarked) it was 8.76%; in that of `CCOC(=O)C1CCN(C(=O)c2ccc(OCC)c(OCC)c2)CC1`, -43.7%; in that of `NC(=O)C1CCN(C(=O)c2ccc3nc(-c4ccccc4)c(-c4ccccc4)nc3c2)CC1`, 12.2%. With `O=S(=O)(Cc1ccccc1Cl)N1CCCCC1` the figure was 2.78%; with `Cc1cccc(N(CC(=O)N/N=C/c2cc([N+](=O)[O-])ccc2Cl)S(C)(=O)=O)c1C`, -0.0837%; with `Cc1ccc(C)c(OCC(=O)O/N=C(\N)c2cccnc2)c1`, 9.24%.

For `CC(C)=CCc1c(O)cc2c(c1O)C(=O)CC(c1ccc(O)cc1)O2` (centres unmarked), the “hERG current change (%, negative = inhibition) at 1uM” value amounted to 8.23%. As to `Cc1ccc(Sc2ccc(N)cn2)cc1`, the “hERG current change (%, negative = inhibition) at 1uM” value is listed as 4.94%. In the case of `CCNc1nc(NCC)n2c(SCC(=O)Nc3ccc(NC(C)=O)cc3)nnc2n1`, the “hERG current change (%, negative = inhibition) at 1uM” value turned out to be 3.54%.

The values are drawn from PMC4336329 (PLoS ONE, 2015).
